We go through seven molecules from patent publication US20240076343A1.

Experiment in all cases: cell-based or functional assay
Assay [1] addresses high-affinity hIL-2 receptor (IL-2Rαβγ) (human) (UniProt P01589).
For assay [2], the target named is intermediate affinity hIL-2 receptor complex (IL-2Rβγ) (human) (UniProt P14784).
In assay [3] the target is intermediate affinity hIL-2 receptor complex (IL-2Rβγ) on TF1+IL-2Rβ cells (human) (UniProt P14784).
Assay [4] concerns the target intermediate affinity hIL-2 receptor (hIL-2Rβγ) on TF1+IL-2Rβ cells (human) (UniProt P14784).
In assay [5] the target is high-affinity hIL-2 receptor (IL-2Rαβγ) on NK-92 cells (human) (UniProt P01589).

B1: 1H3-hIgG1-L6-hIL-2 (R38E/I92D) (protein)
heavy: EVQLVESGGGLVQPGRSLKLSCAVSGFTFSDYAMAWVRQAPKKGLEWVATISYDGSRTYYRDSVKGRFTISRDNAKITLYLQMDSLRSEDTATYYCARHGSGYFDYWGQGVMVTVSS[not shown - about 450 residues with a human IgG1 Fc and changes]
light: DTVLTQSPALAVSPGERVTISCRASESVRTGVHWYQQKPGQQPKLLIYGASNLESGVPARFSGSGSGTDFTLTIDPVEADDTATYFCQQSWNDPFTFGSGTKLEIKRTVAAPSVFIFPPSDEQLKSGTASVVCLLNNFYPREAKVQWKVDNALQSGNSQESVTEQDSKDSTYSLSSTLTLSKADYEKHKVYACEVTHQGLSSPVTKSFNRGEC
In assay [1], B1 displayed an Agonistic Activity (NK-92), pSTAT5 titration of 70% and a Fold change from rhIL-2 (NK-92), pSTAT5 titration of over 10000 fold. In addition, in assay [2], the Agonistic Activity (TF1 + IL-2Rβ), pSTAT5 titration came to 80% and the Fold change from rhIL-2 (TF1 + IL-2Rβ), pSTAT5 titration stood at 51 fold. Moreover, the Fold change from hIL-2 (TF1 + IL-2Rβ) in assay [3] is 2 fold. Besides, the Fold change from rhIL-2 (TF1 + IL-2Rβ) in assay [4] was 116 fold. In assay [5], this molecule displayed a Fold change from hIL-2 (NK-92) of 15 fold and a Fold change from rhIL-2 (NK-92) of 1610 fold.

B2: 1H3-hIgG1-L6-hIL-2 (D20A/E95A/F42R) (protein)
heavy: EVQLVESGGGLVQPGRSLKLSCAVSGFTFSDYAMAWVRQAPKKGLEWVATISYDGSRTYYRDSVKGRFTISRDNAKITLYLQMDSLRSEDTATYYCARHGSGYFDYWGQGVMVTVSS[not shown - human IgG1 constant region]SGGGGSAPTSSSTKKTQLQLEHLLLALQMILNGINNYKNPKLTRMLTRKFYMPKKATELKHLQCLEEELKPLEEVLNLAQSKNFHLRPRDLISNINVIVLALKGSETTFMCEYADETATIVEFLNRWITFCQSIISTLT
light: B1 light
In assay [1], B2 came in with an Agonistic Activity (NK-92), pSTAT5 titration of 70% and a Fold change from rhIL-2 (NK-92), pSTAT5 titration of over 10000 fold. In assay [2], the Agonistic Activity (TF1 + IL-2Rβ), pSTAT5 titration worked out at 60% and the Fold change from rhIL-2 (TF1 + IL-2Rβ), pSTAT5 titration was found to be 87 fold. Moreover, the Fold change from hIL-2 (TF1 + IL-2Rβ) in assay [3] worked out at 4 fold. In assay [4], the Agonistic Activity (TF1 + IL-2Rβ) amounted to 70% and the Fold change from rhIL-2 (TF1 + IL-2Rβ) amounted to 356 fold. Besides, in assay [5], the Agonistic Activity (NK-92) is 70%, the Fold change from hIL-2 (NK-92) worked out at 21 fold and the Fold change from rhIL-2 (NK-92) stood at 2100 fold.

B3: 1H3-hIgG1-L6-hIL-2 (R38E/E61R/D20A) (protein)
heavy: EVQLVESGGGLVQPGRSLKLSCAVSGFTFSDYAMAWVRQAPKKGLEWVATISYDGSRTYYRDSVKGRFTISRDNAKITLYLQMDSLRSEDTATYYCARHGSGYFDYWGQGVMVTVSS[not shown - human IgG1 constant region]SGGGGSAPTSSSTKKTQLQLEHLLLALQMILNGINNYKNPKLTEMLTFKFYMPKKATELKHLQCLERELKPLEEVLNLAQSKNFHLRPRDLISNINVIVLELKGSETTFMCEYADETATIVEFLNRWITFCQSIISTLT
light: B1 light
In assay [1], B3 registered an Agonistic Activity (NK-92), pSTAT5 titration of 90% and a Fold change from rhIL-2 (NK-92), pSTAT5 titration of over 10000 fold. For the same molecule, in assay [2], the Agonistic Activity (TF1 + IL-2Rβ), pSTAT5 titration was found to be 60% and the Fold change from rhIL-2 (TF1 + IL-2Rβ), pSTAT5 titration worked out at 181 fold. The Fold change from hIL-2 (TF1 + IL-2Rβ) in assay [3] was 3 fold. Besides, the Fold change from rhIL-2 (TF1 + IL-2Rβ) in assay [4] is 417 fold. In assay [5], the Fold change from hIL-2 (NK-92) worked out at 11 fold and the Fold change from rhIL-2 (NK-92) was over 10000 fold.

B4: 1H3-hIgG1-L6-hIL-2 (D20A/E95A/R38A) (protein)
heavy: EVQLVESGGGLVQPGRSLKLSCAVSGFTFSDYAMAWVRQAPKKGLEWVATISYDGSRTYYRDSVKGRFTISRDNAKITLYLQMDSLRSEDTATYYCARHGSGYFDYWGQGVMVTVSS[not shown - human IgG1 constant region]SGGGGSAPTSSSTKKTQLQLEHLLLALQMILNGINNYKNPKLTAMLTFKFYMPKKATELKHLQCLEEELKPLEEVLNLAQSKNFHLRPRDLISNINVIVLALKGSETTFMCEYADETATIVEFLNRWITFCQSIISTLT
light: B1 light
In assay [1], B4 registered an Agonistic Activity (NK-92), pSTAT5 titration of 70 to 80%. Besides, in assay [2], the Agonistic Activity (TF1 + IL-2Rβ), pSTAT5 titration turned out to be 70% and the Fold change from rhIL-2 (TF1 + IL-2Rβ), pSTAT5 titration amounted to 157 fold. Moreover, the Fold change from hIL-2 (TF1 + IL-2Rβ) in assay [3] came out at 5 fold. Further, in assay [4], the Agonistic Activity (TF1 + IL-2Rβ) is 80% and the Fold change from rhIL-2 (TF1 + IL-2Rβ) is 537 fold. Besides, in assay [5], the Agonistic Activity (NK-92) was determined as 70%, the Fold change from hIL-2 (NK-92) amounted to 6 fold and the Fold change from rhIL-2 (NK-92) turned out to be 42 fold.

B5: 1H3-hIgG1-L6-hIL-2 (D20A/E95A/F42D) (protein)
heavy: EVQLVESGGGLVQPGRSLKLSCAVSGFTFSDYAMAWVRQAPKKGLEWVATISYDGSRTYYRDSVKGRFTISRDNAKITLYLQMDSLRSEDTATYYCARHGSGYFDYWGQGVMVTVSS[not shown - human IgG1 constant region]SGGGGSAPTSSSTKKTQLQLEHLLLALQMILNGINNYKNPKLTRMLTDKFYMPKKATELKHLQCLEEELKPLEEVLNLAQSKNFHLRPRDLISNINVIVLALKGSETTFMCEYADETATIVEFLNRWITFCQSIISTLT
light: B1 light
In assay [1], B5 returned an Agonistic Activity (NK-92), pSTAT5 titration of 10% and a Fold change from rhIL-2 (NK-92), pSTAT5 titration of over 10000 fold. In assay [2], the Agonistic Activity (TF1 + IL-2Rβ), pSTAT5 titration was 30% and the Fold change from rhIL-2 (TF1 + IL-2Rβ), pSTAT5 titration came to 1450 fold. In assay [3], the Fold change from hIL-2 (TF1 + IL-2Rβ) came out at 12 fold. Further, in assay [4], the Fold change from rhIL-2 (TF1 + IL-2Rβ) was over 10000 fold. In addition, in assay [5], the Fold change from hIL-2 (NK-92) was found to be 22 fold and the Fold change from rhIL-2 (NK-92) was over 10000 fold.

B6: 1H3-hIgG1-L6-hIL-2 (R38E/D84R) (protein)
heavy: EVQLVESGGGLVQPGRSLKLSCAVSGFTFSDYAMAWVRQAPKKGLEWVATISYDGSRTYYRDSVKGRFTISRDNAKITLYLQMDSLRSEDTATYYCARHGSGYFDYWGQGVMVTVSS[not shown - about 450 residues with a human IgG1 Fc and changes]
light: B1 light
As for B6, in assay [1], the Agonistic Activity (NK-92), pSTAT5 titration worked out at 60% and the Fold change from rhIL-2 (NK-92), pSTAT5 titration is over 10000 fold. Besides, in assay [2], the Agonistic Activity (TF1 + IL-2Rβ), pSTAT5 titration is 80% and the Fold change from rhIL-2 (TF1 + IL-2Rβ), pSTAT5 titration amounted to 50 fold. The Fold change from hIL-2 (TF1 + IL-2Rβ) in assay [3] is 2 fold. In assay [4], the Fold change from rhIL-2 (TF1 + IL-2Rβ) stood at 147 fold. In assay [5], this molecule registered a Fold change from hIL-2 (NK-92) of 14 fold and a Fold change from rhIL-2 (NK-92) of over 10000 fold.

B7: 1H3-hIgG1-L6-hIL-2 (R38Q/E61R/D20A) (protein)
heavy: EVQLVESGGGLVQPGRSLKLSCAVSGFTFSDYAMAWVRQAPKKGLEWVATISYDGSRTYYRDSVKGRFTISRDNAKITLYLQMDSLRSEDTATYYCARHGSGYFDYWGQGVMVTVSS[not shown - human IgG1 constant region]SGGGGSAPTSSSTKKTQLQLEHLLLALQMILNGINNYKNPKLTQMLTFKFYMPKKATELKHLQCLERELKPLEEVLNLAQSKNFHLRPRDLISNINVIVLELKGSETTFMCEYADETATIVEFLNRWITFCQSIISTLT
light: B1 light
Turning to B7, in assay [1], the Agonistic Activity (NK-92), pSTAT5 titration came to 40% and the Fold change from rhIL-2 (NK-92), pSTAT5 titration was over 10000 fold. For the same molecule, in assay [2], the Agonistic Activity (TF1 + IL-2Rβ), pSTAT5 titration was 80% and the Fold change from rhIL-2 (TF1 + IL-2Rβ), pSTAT5 titration came to 115 fold. The Fold change from hIL-2 (TF1 + IL-2Rβ) in assay [3] is 3 fold. In assay [4], the Fold change from rhIL-2 (TF1 + IL-2Rβ) was found to be 803 fold. In assay [5], this molecule had an Agonistic Activity (NK-92) of 80%, a Fold change from hIL-2 (NK-92) of 12 fold and a Fold change from rhIL-2 (NK-92) of over 10000 fold.
